According to the supplement of paper PMC4967469:

Tests used:
Experiment in all cases: Viability of human cancer cell lines after 72 h of drug (GDSC screen)
JNK-9L = compound: Fc1cc(-c2ccnc(Nc3ccc(-n4cnc(N5CCOCC5)n4)cc3)n2)cc(N2CCOCC2)c1 [JNK-9L]; settings: top dose 5.12 µM; top dose inferred
Method: (§1)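 Human cancer cell lines in 384-well plates, medium with 10% serum, drug for 72 h over a 256-fold dose range (nine 2-fold or five 4-fold steps up to the top dose). Adherent lines were fixed and stained with the nucleic acid dye Syto60, suspension lines read with resazurin; signal relative to control wells, capped at 0 and 100%. One two-parameter sigmoid per drug and line, fitted in a mixed model over all curves with the slope shared within a line.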

AC220 = compound: CC(C)(C)c1cc(NC(=O)Nc2ccc(-c3cn4c(n3)sc3cc(OCCN5CCOCC5)ccc34)cc2)no1 [AC220]; settings: top dose 1.024 µM; top dose inferred
Method: as §1

CUDC-101 = compound: C#Cc1cccc(Nc2ncnc3cc(OC)c(OCCCCCCC(=O)NO)cc23)c1 [CUDC-101]; settings: top dose 5.12 µM; top dose inferred
Method: as §1

OSU-03012 = compound: NCC(=O)Nc1ccc(-n2nc(C(F)(F)F)cc2-c2ccc3c(ccc4ccccc43)c2)cc1 [OSU-03012]; settings: top dose 16 µM; top dose inferred
Method: as §1

5-Fluorouracil = compound: O=c1[nH]cc(F)c(=O)[nH]1 [5-Fluorouracil]; settings: top dose 32 µM; top dose inferred
Method: as §1

RDEA119 = compound: COc1cc(F)c(F)c(Nc2ccc(I)cc2F)c1NS(=O)(=O)C1(C[C@H](O)CO)CC1 [RDEA119]; settings: top dose 5 µM, top dose inferred
Method: as §1

QS11 = compound: OC[C@H](Cc1ccccc1)Nc1nc(Oc2ccc3c(c2)CCC3)nc2c1ncn2Cc1ccc(-c2ccccc2)cc1 [QS11]; settings: top dose 10.24 µM
Method: as §1

Row | Cell Line | AUC (JNK-9L) | pIC50 (JNK-9L) | AUC (AC220) | pIC50 (AC220) | AUC (CUDC-101) | pIC50 (CUDC-101) | AUC (OSU-03012) | pIC50 (OSU-03012) | AUC (5-Fluorouracil) | pIC50 (5-Fluorouracil) | AUC (RDEA119; screen: GDSC drug entry 1014) | pIC50 (RDEA119; screen: GDSC drug entry 1014) | AUC (RDEA119; screen: GDSC drug entry 1526) | pIC50 (RDEA119; screen: GDSC drug entry 1526) | AUC (QS11) | pIC50 (QS11)
1 | D-283MED (medulloblastoma, adherent) | 0.676 | 6.03 | 0.991 | < 5.99 | 0.991 | < 5.29 | 0.868 | 4.91 | 0.916 | < 4.49 | 0.971 | < 5.30 | 0.99 | < 5.30 | 0.978 | < 4.99
2 | D-392MG (glioma, adherent) | 0.755 | 5.63 | 0.926 | < 5.99 | 0.623 | 6.10 | 0.867 | < 4.80 | 0.943 | < 4.49 | 0.803 | 5.44 | 0.813 | 5.40 | 0.98 | < 4.99
3 | D-502MG (glioma, adherent) | 0.735 | 5.65 | 0.974 | < 5.99 | 0.562 | 6.29 | 0.926 | < 4.80 | 0.877 | < 4.49 | 0.794 | 5.40 | 0.76 | 5.56 | 0.976 | < 4.99
4 | D-542MG (glioma, adherent) | 0.545 | 6.36 | 0.984 | < 5.99 | 0.581 | 6.25 | 0.883 | < 4.80 | 0.983 | < 4.49 | 0.888 | < 5.30 | 0.817 | 5.44 | 0.841 | 5.02
5 | DAN-G (pancreas, adherent) | 0.84 | 5.54 | 0.991 | < 5.99 | 0.739 | 5.86 | 0.991 | < 4.80 | 0.937 | < 4.49 | 0.825 | 5.60 | 0.862 | 5.46 | 0.991 | < 4.99
6 | DB (B-cell lymphoma, suspension) | 0.566 | 6.31 | 0.981 | < 5.99 | 0.247 | 7.27 | 0.683 | 5.46 | 0.833 | 4.61 | 0.979 | < 5.30 | 0.974 | < 5.30 | 0.863 | < 4.99
7 | DBTRG-05MG (glioma, adherent) | 0.61 | 6.17 | 0.983 | < 5.99 | 0.659 | 6.02 | 0.871 | < 4.80 | 0.895 | < 4.49 | 0.642 | 6.08 | 0.778 | 5.62 | 0.983 | < 4.99
8 | DG-75 (Burkitt lymphoma, suspension) | 0.708 | 5.90 | 0.986 | < 5.99 | 0.662 | 6.04 | 0.772 | 5.20 | 0.955 | < 4.49 | 0.974 | < 5.30 | 0.971 | < 5.30 | 0.98 | < 4.99
9 | DJM-1 (skin, adherent) | 0.858 | 5.38 | 0.989 | < 5.99 | 0.973 | < 5.29 | 0.765 | 5.24 | 0.955 | < 4.49 | 0.855 | 5.41 | – | – | 0.957 | < 4.99
10 | DK-MG (glioma, adherent) | 0.923 | < 5.29 | 0.772 | 6.22 | 0.712 | 5.76 | 0.877 | < 4.80 | 0.941 | < 4.49 | 0.731 | 5.70 | 0.727 | 5.71 | 0.975 | < 4.99
11 | DMS-53 (small cell lung carcinoma, adherent) | 0.71 | 5.88 | 0.988 | < 5.99 | 0.927 | < 5.29 | 0.988 | < 4.80 | 0.986 | < 4.49 | – | – | 0.974 | < 5.30 | 0.986 | < 4.99
12 | DMS-79 (small cell lung carcinoma, suspension) | 0.867 | < 5.29 | 0.943 | < 5.99 | 0.699 | 5.89 | 0.966 | < 4.80 | 0.911 | < 4.49 | 0.987 | < 5.30 | 0.978 | < 5.30 | 0.968 | < 4.99
13 | DMS-114 (small cell lung carcinoma, adherent) | 0.836 | 5.38 | 0.976 | < 5.99 | 0.815 | 5.47 | 0.884 | < 4.80 | 0.97 | < 4.49 | 0.939 | < 5.30 | 0.924 | < 5.30 | 0.979 | < 4.99
14 | DMS-273 (small cell lung carcinoma, adherent) | 0.36 | 6.89 | 0.967 | < 5.99 | 0.465 | 6.59 | 0.694 | 5.44 | 0.806 | 4.76 | 0.943 | < 5.30 | 0.971 | < 5.30 | 0.86 | 5.03

pIC50: −log10 of the molar value. By IC50 is meant the dose at which the fit gives 50% viability; a limit (>, <) means that the fit lies beyond the doses tested. For AUC the same curve is integrated over the 256-fold range of doses and scaled to a fraction; values near 1 show little effect. For some of these results: The top dose, if marked as inferred, was calculated from the reported fits. For some of these results: Where an entry number is given, a second screen of the drug exists; the two often differ.
